This is one part of the list. The list includes weakly bound sequences.

The target in the test is T1, MBP-FoxP3dN (UniProt Q99JB6).
T1 sequence: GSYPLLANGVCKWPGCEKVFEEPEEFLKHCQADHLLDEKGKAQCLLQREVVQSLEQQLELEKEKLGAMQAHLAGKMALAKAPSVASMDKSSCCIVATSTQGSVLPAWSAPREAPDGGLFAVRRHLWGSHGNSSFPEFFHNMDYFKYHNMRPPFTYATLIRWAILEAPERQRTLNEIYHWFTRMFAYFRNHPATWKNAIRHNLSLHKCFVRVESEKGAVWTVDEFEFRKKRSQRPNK
Kind of test: PD-seq (MBP pull-down with sequencing). The conditions noted are these: 20 mM Tris-HCl pH 7.5, 100 mM NaCl, 1.5 mM MgCl2, 0.4 uM protein, 0.1 uM dsDNA library, 30 min, room temperature, amylose pull-down; high values mean tight binding; double strand, one strand shown.
For the sequence “GATGATTGTTCTCCCAGCTGATGAATTTCGTGGTTCGAGTAAACAAATTTTCCTAATCTTTCTGTTCAAGCGCCATCTAC”, the binding signal (RPM ratio (pull-down/input)) amounted to 0.898.

For the sequence “GATGATTGTTCTCCCAGCTGATGAATTCACTATCTCGAGTAAACAAATTTTCCTAATCTTTCTGTTCAAGCGCCATCTAC”, the binding signal (RPM ratio (pull-down/input)) was found to be 0.405. “GATGATTGTTCTCCCAGCTGATGAATTAGGACATTCGAGTAAACAAATTTTCCTAATCTTTCTGTTCAAGCGCCATCTAC”: the binding signal (RPM ratio (pull-down/input)) was determined as 0.784. Take “GATGATTGTTCTCCCAGCTGATGAATTATGATCGTCGAGTAAACAAATTTTCCTAATCTTTCTGTTCAAGCGCCATCTAC”: the binding signal (RPM ratio (pull-down/input)) came out at 0.599.

Consider “GATGATTGTTCTCCCAGCTGATGAATTAGGAAAGTCGAGTAAACAAATTTTCCTAATCTTTCTGTTCAAGCGCCATCTAC”, for which the binding signal (RPM ratio (pull-down/input)) is 0.198. In the case of “GATGATTGTTCTCCCAGCTGATGAATTTTGATGATCGAGTAAACAAATTTTCCTAATCTTTCTGTTCAAGCGCCATCTAC”, the binding signal (RPM ratio (pull-down/input)) was determined as 2.11.

Regarding “GATGATTGTTCTCCCAGCTGATGAATTTTAGGACTCGAGTAAACAAATTTTCCTAATCTTTCTGTTCAAGCGCCATCTAC”, the binding signal (RPM ratio (pull-down/input)) turned out to be 0.275.

Consider “GATGATTGTTCTCCCAGCTGATGAATTTCACGGCTCGAGTAAACAAATTTTCCTAATCTTTCTGTTCAAGCGCCATCTAC”, for which the binding signal (RPM ratio (pull-down/input)) is 0.24.

“GATGATTGTTCTCCCAGCTGATGAATTTGAACGCTCGAGTAAACAAATTTTCCTAATCTTTCTGTTCAAGCGCCATCTAC”: the binding signal (RPM ratio (pull-down/input)) was 0.331.

“GATGATTGTTCTCCCAGCTGATGAATTGAGTCCTTCGAGTAAACAAATTTTCCTAATCTTTCTGTTCAAGCGCCATCTAC”: the binding signal (RPM ratio (pull-down/input)) amounted to 0.401. On to “GATGATTGTTCTCCCAGCTGATGAATTGTAATAATCGAGTAAACAAATTTTCCTAATCTTTCTGTTCAAGCGCCATCTAC”, for which the binding signal (RPM ratio (pull-down/input)) is 0.687. To “GATGATTGTTCTCCCAGCTGATGAATTGGGGCGGTCGAGTAAACAAATTTTCCTAATCTTTCTGTTCAAGCGCCATCTAC” belongs 0.309. To “GATGATTGTTCTCCCAGCTGATGAATTGGCGGAGTCGAGTAAACAAATTTTCCTAATCTTTCTGTTCAAGCGCCATCTAC” belongs 0.247; to “GATGATTGTTCTCCCAGCTGATGAATTCACCACATCGAGTAAACAAATTTTCCTAATCTTTCTGTTCAAGCGCCATCTAC”, 0.517. To “GATGATTGTTCTCCCAGCTGATGAATTAGTAGTATCGAGTAAACAAATTTTCCTAATCTTTCTGTTCAAGCGCCATCTAC” belongs 2.45; to “GATGATTGTTCTCCCAGCTGATGAATTTACGGGCTCGAGTAAACAAATTTTCCTAATCTTTCTGTTCAAGCGCCATCTAC”, 0.348. As for “GATGATTGTTCTCCCAGCTGATGAATTCACCGCGTCGAGTAAACAAATTTTCCTAATCTTTCTGTTCAAGCGCCATCTAC”, the binding signal (RPM ratio (pull-down/input)) was 0.429. To “GATGATTGTTCTCCCAGCTGATGAATTACACCCGTCGAGTAAACAAATTTTCCTAATCTTTCTGTTCAAGCGCCATCTAC” belongs 0.381. To “GATGATTGTTCTCCCAGCTGATGAATTGTCAGCGTCGAGTAAACAAATTTTCCTAATCTTTCTGTTCAAGCGCCATCTAC” belongs 0.497. As for “GATGATTGTTCTCCCAGCTGATGAATTTGAAGACTCGAGTAAACAAATTTTCCTAATCTTTCTGTTCAAGCGCCATCTAC”, the binding signal (RPM ratio (pull-down/input)) amounted to 0.276. Take “GATGATTGTTCTCCCAGCTGATGAATTGCCCACGTCGAGTAAACAAATTTTCCTAATCTTTCTGTTCAAGCGCCATCTAC”: the binding signal (RPM ratio (pull-down/input)) amounted to 0.467. To “GATGATTGTTCTCCCAGCTGATGAATTACTAAATTCGAGTAAACAAATTTTCCTAATCTTTCTGTTCAAGCGCCATCTAC” belongs 0.312; to “GATGATTGTTCTCCCAGCTGATGAATTCCCGCCATCGAGTAAACAAATTTTCCTAATCTTTCTGTTCAAGCGCCATCTAC”, 2.09; to “GATGATTGTTCTCCCAGCTGATGAATTTTATCCTTCGAGTAAACAAATTTTCCTAATCTTTCTGTTCAAGCGCCATCTAC”, 0.446. As for “GATGATTGTTCTCCCAGCTGATGAATTTCGCGAATCGAGTAAACAAATTTTCCTAATCTTTCTGTTCAAGCGCCATCTAC”, the binding signal (RPM ratio (pull-down/input)) was 0.23. Consider “GATGATTGTTCTCCCAGCTGATGAATTATGTTTCTCGAGTAAACAAATTTTCCTAATCTTTCTGTTCAAGCGCCATCTAC”, for which the binding signal (RPM ratio (pull-down/input)) amounted to 4.18. Regarding “GATGATTGTTCTCCCAGCTGATGAATTCTGTTTATCGAGTAAACAAATTTTCCTAATCTTTCTGTTCAAGCGCCATCTAC”, the binding signal (RPM ratio (pull-down/input)) came to 7.92.

As to “GATGATTGTTCTCCCAGCTGATGAATTATATTCGTCGAGTAAACAAATTTTCCTAATCTTTCTGTTCAAGCGCCATCTAC”, the binding signal (RPM ratio (pull-down/input)) was found to be 0.578. To “GATGATTGTTCTCCCAGCTGATGAATTCTCGGCCTCGAGTAAACAAATTTTCCTAATCTTTCTGTTCAAGCGCCATCTAC” belongs 0.255; to “GATGATTGTTCTCCCAGCTGATGAATTACGAACTTCGAGTAAACAAATTTTCCTAATCTTTCTGTTCAAGCGCCATCTAC”, 0.335; to “GATGATTGTTCTCCCAGCTGATGAATTTGAAAGGTCGAGTAAACAAATTTTCCTAATCTTTCTGTTCAAGCGCCATCTAC”, 0.194. On to “GATGATTGTTCTCCCAGCTGATGAATTTCACCCTTCGAGTAAACAAATTTTCCTAATCTTTCTGTTCAAGCGCCATCTAC”, for which the binding signal (RPM ratio (pull-down/input)) is 0.275. To “GATGATTGTTCTCCCAGCTGATGAATTTGCCTCTTCGAGTAAACAAATTTTCCTAATCTTTCTGTTCAAGCGCCATCTAC” belongs 2.52; to “GATGATTGTTCTCCCAGCTGATGAATTGGTCCAGTCGAGTAAACAAATTTTCCTAATCTTTCTGTTCAAGCGCCATCTAC”, 0.229; to “GATGATTGTTCTCCCAGCTGATGAATTATCGCGCTCGAGTAAACAAATTTTCCTAATCTTTCTGTTCAAGCGCCATCTAC”, 0.537. As to “GATGATTGTTCTCCCAGCTGATGAATTAGTACTTTCGAGTAAACAAATTTTCCTAATCTTTCTGTTCAAGCGCCATCTAC”, the binding signal (RPM ratio (pull-down/input)) came to 0.674. To “GATGATTGTTCTCCCAGCTGATGAATTCCTGAACTCGAGTAAACAAATTTTCCTAATCTTTCTGTTCAAGCGCCATCTAC” belongs 0.217. To “GATGATTGTTCTCCCAGCTGATGAATTTGAGGAATCGAGTAAACAAATTTTCCTAATCTTTCTGTTCAAGCGCCATCTAC” belongs 0.241.

As for “GATGATTGTTCTCCCAGCTGATGAATTGTATCTGTCGAGTAAACAAATTTTCCTAATCTTTCTGTTCAAGCGCCATCTAC”, the binding signal (RPM ratio (pull-down/input)) worked out at 1.2. To “GATGATTGTTCTCCCAGCTGATGAATTCGCTCACTCGAGTAAACAAATTTTCCTAATCTTTCTGTTCAAGCGCCATCTAC” belongs 0.368.
